Results published in PMC9911596 (Nature Communications, 2023).
Where a chain is given by its changes, count along the chain named. In names and notes the source's numbering stands. Results are given in words; binding and its absence hold for the method and conditions named. Some binding calls cover weakened binding; strength is not graded here. Values belong to the molecule of their own block, whether it stands above or below them.

Chains of the proteins cited; added tags and fusions are not shown. Lines headed by an entry give the natural chain unless they say otherwise; changes in a name come on top.
UniProt P47075: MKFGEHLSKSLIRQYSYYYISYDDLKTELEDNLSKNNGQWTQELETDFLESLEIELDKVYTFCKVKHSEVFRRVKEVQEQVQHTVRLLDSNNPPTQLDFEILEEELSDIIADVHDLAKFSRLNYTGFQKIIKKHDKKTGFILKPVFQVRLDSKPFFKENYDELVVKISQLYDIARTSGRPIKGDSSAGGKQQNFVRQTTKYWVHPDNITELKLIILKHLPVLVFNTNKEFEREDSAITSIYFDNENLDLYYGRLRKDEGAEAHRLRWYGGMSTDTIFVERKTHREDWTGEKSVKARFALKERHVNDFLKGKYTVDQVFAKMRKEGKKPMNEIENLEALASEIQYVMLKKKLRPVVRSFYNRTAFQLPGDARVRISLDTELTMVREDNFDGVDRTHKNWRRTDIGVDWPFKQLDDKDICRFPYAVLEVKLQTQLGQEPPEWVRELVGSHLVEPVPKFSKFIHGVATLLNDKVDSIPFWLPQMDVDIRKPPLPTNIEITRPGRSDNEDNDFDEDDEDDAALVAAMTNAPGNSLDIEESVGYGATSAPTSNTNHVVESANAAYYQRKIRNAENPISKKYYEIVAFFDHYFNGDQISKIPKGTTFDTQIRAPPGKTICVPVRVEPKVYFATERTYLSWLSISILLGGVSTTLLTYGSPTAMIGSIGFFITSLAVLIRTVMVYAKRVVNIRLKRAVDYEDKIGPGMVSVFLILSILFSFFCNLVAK

Experiments:
Vtc3 = molecular target: T1, Vtc3 (Baker's yeast, UniProt Q02725 1-835); assay: tandem affinity co-purification (anti-Flag resin, then Strep-Tactin resin) with SDS-PAGE; three subunits co-expressed in Expi293F; complex purified by 3×Flag on Vtc3 and 2×Strep on Vtc4; no InsP6 added, 0.02% DDM
T1 construct: Vtc3, yeast, UniProt Q02725; codon-optimized DNA in the pMlink vector; source: Expi293F cells, transiently cotransfected with the Vtc1 and Vtc4 plasmids; purified as part of the VTC complex (anti-Flag resin, Strep-Tactin resin; SEC for the cryo-EM sample); not shown: 3×Flag, N-terminal, kept
T1 sequence: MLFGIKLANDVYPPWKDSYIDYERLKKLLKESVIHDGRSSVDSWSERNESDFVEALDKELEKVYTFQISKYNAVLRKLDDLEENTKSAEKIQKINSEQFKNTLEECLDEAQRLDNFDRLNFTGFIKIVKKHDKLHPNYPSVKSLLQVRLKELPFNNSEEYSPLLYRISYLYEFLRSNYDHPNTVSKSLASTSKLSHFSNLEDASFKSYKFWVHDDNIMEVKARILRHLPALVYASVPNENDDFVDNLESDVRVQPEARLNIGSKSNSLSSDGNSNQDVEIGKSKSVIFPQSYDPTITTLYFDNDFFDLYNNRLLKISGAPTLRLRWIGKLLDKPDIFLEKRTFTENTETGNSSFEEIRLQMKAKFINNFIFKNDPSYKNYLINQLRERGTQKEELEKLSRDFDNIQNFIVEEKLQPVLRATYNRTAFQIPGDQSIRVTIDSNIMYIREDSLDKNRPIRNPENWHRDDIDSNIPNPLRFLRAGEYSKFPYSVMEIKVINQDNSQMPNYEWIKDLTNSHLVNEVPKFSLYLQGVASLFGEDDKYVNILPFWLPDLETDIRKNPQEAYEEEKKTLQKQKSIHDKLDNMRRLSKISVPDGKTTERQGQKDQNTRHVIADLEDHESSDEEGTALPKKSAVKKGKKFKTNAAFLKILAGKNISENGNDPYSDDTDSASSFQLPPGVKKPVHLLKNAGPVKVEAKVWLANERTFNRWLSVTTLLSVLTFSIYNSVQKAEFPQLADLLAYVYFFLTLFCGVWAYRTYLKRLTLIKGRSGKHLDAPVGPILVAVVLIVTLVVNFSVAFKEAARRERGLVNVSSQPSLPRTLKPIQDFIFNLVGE

[1] = molecular target: T2, TTM_(183–553)^Vtc3,mutant (Baker's yeast) (UniProt Q02725); assay: SEC; isolated TTM domains mixed in the presence of InsP6; 25 mM Tris-HCl pH 8.0, 150 mM NaCl; both purified
T2 sequence: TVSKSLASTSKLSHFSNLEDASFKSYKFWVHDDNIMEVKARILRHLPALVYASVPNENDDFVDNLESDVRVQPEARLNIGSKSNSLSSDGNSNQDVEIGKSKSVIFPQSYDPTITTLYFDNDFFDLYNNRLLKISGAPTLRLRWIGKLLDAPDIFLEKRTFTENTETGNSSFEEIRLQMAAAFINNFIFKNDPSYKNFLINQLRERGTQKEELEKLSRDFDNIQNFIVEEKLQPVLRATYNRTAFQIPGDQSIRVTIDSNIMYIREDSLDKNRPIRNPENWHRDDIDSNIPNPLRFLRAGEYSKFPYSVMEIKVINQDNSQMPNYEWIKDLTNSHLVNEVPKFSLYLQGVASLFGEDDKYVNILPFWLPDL

[2] = molecular target: T3, TTM_(183–553)^Vtc3 (Baker's yeast) (UniProt Q02725); assay: as above
T3 sequence: T2 sequence with A151K, A180K, A182K, F198Y

Vtc4 (Baker's yeast) = Vtc4 (Baker's yeast) (UniProt P47075); assay: tandem affinity co-purification (anti-Flag resin, then Strep-Tactin resin) with SDS-PAGE; three subunits co-expressed in Expi293F; complex purified by 3×Flag on Vtc3 and 2×Strep on Vtc4; no InsP6 added, 0.02% DDM

Molecule: Vtc4_(Y22F/K26A/K133A) (from UniProt P47075 2-721)
- binding (Vtc3): binds

- binding [1]: no binding
Molecule: TTM_(189–480)^Vtc4 (from UniProt P47075 189-480) (domain or fragment)

Molecule: Vtc4_(K622A/R629A) (from UniProt P47075 2-721)
- binding (Vtc3): binds

- binding [2]: no binding
Molecule: TTM_(189–480)^Vtc4,mutant (from UniProt P47075 189-480) (domain or fragment)

Molecule: Vtc4_(K129A/K132A/K136A) (from UniProt P47075 2-721)
- binding (Vtc3): binds

Molecule: Vtc4_(K300A/R302A/K320A) (from UniProt P47075 2-721)
- binding (Vtc3): binds

B1: Vtc1_(Δ1–21) (domain or fragment, UniProt P40046 22-129)
chain: EPKVFFANERTFLSWLNFTVMLGGLGVGLLNFGDKIGRVSAGLFTFVAMGTMIYALVTYHWRAAAIRRRGSGPYDDRLGPTLLCFFLLVAVIINFILRLKYNDANTKL
- binding (Vtc3): binds
- binding (Vtc4 (Baker's yeast)): binds

B2: Vtc1_(K24A/R31A) (protein, UniProt P40046 2-129)
chain: SSAPLLQRTPGKKIALPTRVEPAVFFANEATFLSWLNFTVMLGGLGVGLLNFGDKIGRVSAGLFTFVAMGTMIYALVTYHWRAAAIRRRGSGPYDDRLGPTLLCFFLLVAVIINFILRLKYNDANTKL
- binding (Vtc3): binds
- binding (Vtc4 (Baker's yeast)): binds
